Measured values taken from the supplement of paper PMC9446081.
The whole screen tested about 39,000 compounds, of which about 220 (0.56%) showed activity. This is one part of the list.

Test system: Escherichia coli K-12 BW25113
Assay: relative growth (OD600 normalised to plate interquartile mean) (fraction); higher = less growth inhibition, active = 0.2 or less
Settings: 50 µM; LB; incubation time: overnight (16-24 h)
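Also: static incubation at 37 °C against the wild-type strain, values averaged over two biological replicates.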

SMILES	relative growth
COc1ccc2c3c([nH]c2c1)[C@H](CO)N(C[C@]13CN(C1)S(=O)(=O)C)C(=O)c1cnccn1	inactive: 0.999
C[C@H]1CN([C@@H](C)CO)S(=O)(=O)c2ccc(C#Cc3ccncc3)cc2O[C@H]1CN(C)S(=O)(=O)c1ccc(F)cc1	inactive: 0.97
C[C@@H]1CCCCO[C@@H](CN(C)CC2CCCCC2)[C@@H](C)CN([C@H](C)CO)C(=O)c2cc(NS(=O)(=O)c3ccc(F)cc3)ccc2O1	inactive: 0.998
C[C@@H]1CN([C@@H](C)CO)C(=O)c2cc(NC(=O)Nc3cccc4ccccc34)ccc2O[C@@H](C)CCCCO[C@@H]1CN(C)Cc1ccncc1	inactive: 0.888
C[C@@H]1CCCCO[C@H](CN(C)C(=O)Nc2ccc3c(c2)OCO3)[C@@H](C)CN([C@H](C)CO)C(=O)c2cc(NS(=O)(=O)c3ccc(F)cc3)ccc2O1	inactive: 1.02
C[C@@H]1CC[C@@]2(OC1)O[C@H]1C[C@H]3[C@H]4CC=C5C[C@@H](O[C@@H]6O[C@H](CO)[C@@H](O[C@@H]7O[C@@H](C)[C@H](O)[C@@H](O)[C@H]7O[C@@H]7O[C@@H](C)[C@H](O)[C@@H](O)[C@H]7O)[C@H](O)[C@H]6O)CC[C@]5(C)[C@@H]4CC[C@]3(C)[C@H]1[C@@H]2C	inactive: 0.872
C[C@@H]1CN([C@@H](C)CO)C(=O)c2cccc(NC(=O)c3ccc(-c4nccs4)cc3)c2O[C@@H]1CN(C)C(=O)Nc1cccc2ccccc12	inactive: 1.03
COc1ncnc(N)c1OC	inactive: 1.02
C[C@@H]1CCCCO[C@H](CN(C)CC2CCCCC2)[C@H](C)CN([C@@H](C)CO)C(=O)c2cc(NC(=O)NC3CCCCC3)ccc2O1	inactive: 0.961
O=C(C=Cc1ccc(O)c(O)c1)OC1CC(O)(C(=O)O)CC(O)C1O (configuration not stated)	inactive: 1.04
NNC(=O)c1ccc(OC[C@@H](O)CO)cc1O	inactive: 1.01
O=C(O)COc1nn(Cc2ccccc2)c2ccccc12	inactive: 1.07
CC(C)NC(=O)Nc1ccc2c(c1)C(=O)N([C@H](C)CO)C[C@H](C)[C@@H](CN(C)S(=O)(=O)c1ccc(Cl)cc1)O2	inactive: 1.01
C[C@@H]1CN([C@H](C)CO)C(=O)c2cccc(NC(=O)NC3CCCCC3)c2O[C@H]1CN(C)Cc1ccc(Oc2ccccc2)cc1	inactive: 0.946
COCC(=O)Nc1ccc2c(c1)C(=O)N(C)C[C@H](OC)[C@H](C)CN(Cc1ccccc1F)[C@@H](C)CO2	inactive: 1.04
COc1cccc(-c2cn(CC[C@H]3CC[C@@H](NC(=O)CN(C)C)[C@@H](CO)O3)nn2)c1	inactive: 0.998
S=C=Nc1ccc(N=C=S)cc1	inactive: 1.02
CCC(=C(c1ccccc1)c1ccc(OCCN(C)C)cc1)c1ccccc1.O=C(O)CC(O)(CC(=O)O)C(=O)O	inactive: 0.642
Cc1cccnc1[C@H](c1ccc(F)cc1)N(C)C(=O)C1CCN(CCn2cnc3c2c(=O)n(C)c(=O)n3C)CC1	inactive: 1

SMILES	relative growth
CCc1ccc(/C=C2\SC(=O)N(CCCCCCNC(=O)c3ccccc3Nc3ccc([N+](=O)[O-])c4nonc34)C2=O)cc1	inactive: 0.982
CN1C(=O)c2cc(NC(=O)c3ccc(C(F)(F)F)cc3)ccc2OC[C@@H]2O[C@H](CC(=O)NC3Cc4ccccc4C3)CC[C@H]21	inactive: 1.03
CC(C)N1C[C@H](C)[C@@H](CN(C)Cc2ccc(Oc3ccccc3)cc2)Oc2c(C(=O)Nc3ccncc3)cccc2C1=O	inactive: 0.985
COc1ccc(S(=O)(=O)N(C)C[C@@H]2Oc3c(NC(=O)NC(C)C)cccc3C(=O)N([C@@H](C)CO)C[C@@H]2C)cc1	inactive: 1.03
COc1ccccc1S(=O)(=O)N(C)C[C@@H]1Oc2cc(C#CCC(C)C)ccc2S(=O)(=O)N([C@@H](C)CO)C[C@H]1C	inactive: 0.98
O=C(C[C@H]1CC[C@H]2[C@@H](COC[C@H](O)CN2S(=O)(=O)c2ccc(Oc3ccccc3)cc2)O1)NCCN1CCCCC1	inactive: 0.998
CC[C@@H](C)CCCCC(=O)N[C@@H](CCN)C(=O)N[C@H](C(=O)N[C@@H](CCN)C(=O)N[C@H]1CCNC(=O)[C@H]([C@@H](C)O)NC(=O)[C@H](CCN)NC(=O)[C@H](CCN)NC(=O)[C@H](CC(C)C)NC(=O)[C@@H](Cc2ccccc2)NC(=O)[C@@H](CCN)NC1=O)[C@@H](C)O	active: 0.0424
CN(C)C(=O)CN1C[C@]23CN(Cc4cnn(C)c4)C[C@@H](C[C@@H]2S1(=O)=O)O3	inactive: 0.995
OC[C@@H](O)[C@@H](O)[C@H](O)[C@@H](O)CO	inactive: 1.01
C[C@H](NC(=O)N(C)C[C@@H]1OCc2ccccc2-c2ccccc2C(=O)N([C@H](C)CO)C[C@H]1C)c1ccccc1	inactive: 1.01
COc1ccccc1N=C(NO)c1nonc1N	inactive: 0.938
COCCOC(=O)N1C(=O)[C@@]2(c3cc(C#CC4=CCCCC4)ccc31)[C@H](c1ccc(OCCO)cc1)N1[C@H](c3ccccc3)[C@H](c3ccccc3)OC(=O)[C@H]1[C@@H]2C(=O)NC[C@H](O)c1ccccc1	inactive: 1.11
C[C@H](CO)N1C[C@H](C)[C@@H](CN(C)C(=O)Nc2cccc3ccccc23)Oc2c(NC(=O)Nc3cccc4ccccc34)cccc2C1=O	inactive: 1.02
C[C@@H]1CN([C@H](C)CO)C(=O)Cc2cc(NC(=O)CCCN(C)C)ccc2O[C@@H]1CN(C)S(=O)(=O)c1ccc(F)cc1	inactive: 0.982
C[C@@H]1CN([C@H](C)CO)C(=O)c2cc(NC(=O)CCN3CCOCC3)ccc2O[C@@H]1CN(C)CC1CCCCC1	inactive: 1.01
COc1ccc(CN(C)C[C@@H]2OCCCC[C@@H](C)Oc3ccc(NC(=O)c4ccncc4)cc3C(=O)N([C@H](C)CO)C[C@H]2C)cc1	inactive: 0.988
C[C@@H]1CN([C@H](C)CO)C(=O)c2cc(NC(=O)CCCN(C)C)ccc2O[C@@H](C)CCCCO[C@H]1CN(C)Cc1ccc(C(F)(F)F)cc1	inactive: 0.973
C[C@@H]1CN([C@H](C)CO)C(=O)c2cc(NC(=O)Nc3ccc(F)cc3)ccc2O[C@@H](C)CCCCO[C@H]1CN(C)Cc1ccccc1	inactive: 1.02
